The target in experiment [1] is T1, Flag-NRF2 (UniProt Q16236).
T1 sequence: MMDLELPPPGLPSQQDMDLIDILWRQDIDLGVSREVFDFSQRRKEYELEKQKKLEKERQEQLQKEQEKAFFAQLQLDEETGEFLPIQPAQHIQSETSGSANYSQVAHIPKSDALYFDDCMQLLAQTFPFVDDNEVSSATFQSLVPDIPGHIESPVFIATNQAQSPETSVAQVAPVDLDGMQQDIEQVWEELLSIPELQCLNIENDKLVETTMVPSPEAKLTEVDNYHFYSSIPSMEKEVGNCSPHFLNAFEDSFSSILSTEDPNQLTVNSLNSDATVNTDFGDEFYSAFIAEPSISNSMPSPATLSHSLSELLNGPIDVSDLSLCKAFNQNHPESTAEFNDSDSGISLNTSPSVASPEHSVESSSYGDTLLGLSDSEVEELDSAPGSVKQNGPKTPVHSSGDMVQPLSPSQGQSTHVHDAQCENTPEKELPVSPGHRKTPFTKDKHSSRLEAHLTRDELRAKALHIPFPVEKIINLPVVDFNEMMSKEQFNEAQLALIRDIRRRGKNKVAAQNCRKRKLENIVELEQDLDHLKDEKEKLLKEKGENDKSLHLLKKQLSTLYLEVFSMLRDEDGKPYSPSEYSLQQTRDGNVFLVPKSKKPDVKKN
The experiment in a line: co-IP; Supplementary Fig. 6c, d: NRF2 with CBP or p300, without or in the presence of GAS41; legend and cells not shown.

Amino acid sequences for entries named in this document (tags omitted). A change or cut given only in a name is not applied to a line headed by its entry. Residues count along the entry.
UniProt O95619: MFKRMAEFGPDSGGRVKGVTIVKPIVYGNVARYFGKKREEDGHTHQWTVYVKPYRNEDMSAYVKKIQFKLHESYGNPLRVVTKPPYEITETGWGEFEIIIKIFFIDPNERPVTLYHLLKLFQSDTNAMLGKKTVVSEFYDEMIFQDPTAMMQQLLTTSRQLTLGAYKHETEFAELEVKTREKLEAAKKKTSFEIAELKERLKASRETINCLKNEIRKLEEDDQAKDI
GAS41-amino acids 1-206 (YEATS domain, A box and partial coiled-coil motif): residues 1-206 of O95619
GAS41-amino acids 1-183 (YEATS domain and A box): residues 1-183 of O95619
GAS41-amino acids 1-160 (YEATS domain and A box): residues 1-160 of O95619
GAS41-amino acids 161-227 (complete coiled-coil motif): residues 161-227 of O95619
UniProt Q92793: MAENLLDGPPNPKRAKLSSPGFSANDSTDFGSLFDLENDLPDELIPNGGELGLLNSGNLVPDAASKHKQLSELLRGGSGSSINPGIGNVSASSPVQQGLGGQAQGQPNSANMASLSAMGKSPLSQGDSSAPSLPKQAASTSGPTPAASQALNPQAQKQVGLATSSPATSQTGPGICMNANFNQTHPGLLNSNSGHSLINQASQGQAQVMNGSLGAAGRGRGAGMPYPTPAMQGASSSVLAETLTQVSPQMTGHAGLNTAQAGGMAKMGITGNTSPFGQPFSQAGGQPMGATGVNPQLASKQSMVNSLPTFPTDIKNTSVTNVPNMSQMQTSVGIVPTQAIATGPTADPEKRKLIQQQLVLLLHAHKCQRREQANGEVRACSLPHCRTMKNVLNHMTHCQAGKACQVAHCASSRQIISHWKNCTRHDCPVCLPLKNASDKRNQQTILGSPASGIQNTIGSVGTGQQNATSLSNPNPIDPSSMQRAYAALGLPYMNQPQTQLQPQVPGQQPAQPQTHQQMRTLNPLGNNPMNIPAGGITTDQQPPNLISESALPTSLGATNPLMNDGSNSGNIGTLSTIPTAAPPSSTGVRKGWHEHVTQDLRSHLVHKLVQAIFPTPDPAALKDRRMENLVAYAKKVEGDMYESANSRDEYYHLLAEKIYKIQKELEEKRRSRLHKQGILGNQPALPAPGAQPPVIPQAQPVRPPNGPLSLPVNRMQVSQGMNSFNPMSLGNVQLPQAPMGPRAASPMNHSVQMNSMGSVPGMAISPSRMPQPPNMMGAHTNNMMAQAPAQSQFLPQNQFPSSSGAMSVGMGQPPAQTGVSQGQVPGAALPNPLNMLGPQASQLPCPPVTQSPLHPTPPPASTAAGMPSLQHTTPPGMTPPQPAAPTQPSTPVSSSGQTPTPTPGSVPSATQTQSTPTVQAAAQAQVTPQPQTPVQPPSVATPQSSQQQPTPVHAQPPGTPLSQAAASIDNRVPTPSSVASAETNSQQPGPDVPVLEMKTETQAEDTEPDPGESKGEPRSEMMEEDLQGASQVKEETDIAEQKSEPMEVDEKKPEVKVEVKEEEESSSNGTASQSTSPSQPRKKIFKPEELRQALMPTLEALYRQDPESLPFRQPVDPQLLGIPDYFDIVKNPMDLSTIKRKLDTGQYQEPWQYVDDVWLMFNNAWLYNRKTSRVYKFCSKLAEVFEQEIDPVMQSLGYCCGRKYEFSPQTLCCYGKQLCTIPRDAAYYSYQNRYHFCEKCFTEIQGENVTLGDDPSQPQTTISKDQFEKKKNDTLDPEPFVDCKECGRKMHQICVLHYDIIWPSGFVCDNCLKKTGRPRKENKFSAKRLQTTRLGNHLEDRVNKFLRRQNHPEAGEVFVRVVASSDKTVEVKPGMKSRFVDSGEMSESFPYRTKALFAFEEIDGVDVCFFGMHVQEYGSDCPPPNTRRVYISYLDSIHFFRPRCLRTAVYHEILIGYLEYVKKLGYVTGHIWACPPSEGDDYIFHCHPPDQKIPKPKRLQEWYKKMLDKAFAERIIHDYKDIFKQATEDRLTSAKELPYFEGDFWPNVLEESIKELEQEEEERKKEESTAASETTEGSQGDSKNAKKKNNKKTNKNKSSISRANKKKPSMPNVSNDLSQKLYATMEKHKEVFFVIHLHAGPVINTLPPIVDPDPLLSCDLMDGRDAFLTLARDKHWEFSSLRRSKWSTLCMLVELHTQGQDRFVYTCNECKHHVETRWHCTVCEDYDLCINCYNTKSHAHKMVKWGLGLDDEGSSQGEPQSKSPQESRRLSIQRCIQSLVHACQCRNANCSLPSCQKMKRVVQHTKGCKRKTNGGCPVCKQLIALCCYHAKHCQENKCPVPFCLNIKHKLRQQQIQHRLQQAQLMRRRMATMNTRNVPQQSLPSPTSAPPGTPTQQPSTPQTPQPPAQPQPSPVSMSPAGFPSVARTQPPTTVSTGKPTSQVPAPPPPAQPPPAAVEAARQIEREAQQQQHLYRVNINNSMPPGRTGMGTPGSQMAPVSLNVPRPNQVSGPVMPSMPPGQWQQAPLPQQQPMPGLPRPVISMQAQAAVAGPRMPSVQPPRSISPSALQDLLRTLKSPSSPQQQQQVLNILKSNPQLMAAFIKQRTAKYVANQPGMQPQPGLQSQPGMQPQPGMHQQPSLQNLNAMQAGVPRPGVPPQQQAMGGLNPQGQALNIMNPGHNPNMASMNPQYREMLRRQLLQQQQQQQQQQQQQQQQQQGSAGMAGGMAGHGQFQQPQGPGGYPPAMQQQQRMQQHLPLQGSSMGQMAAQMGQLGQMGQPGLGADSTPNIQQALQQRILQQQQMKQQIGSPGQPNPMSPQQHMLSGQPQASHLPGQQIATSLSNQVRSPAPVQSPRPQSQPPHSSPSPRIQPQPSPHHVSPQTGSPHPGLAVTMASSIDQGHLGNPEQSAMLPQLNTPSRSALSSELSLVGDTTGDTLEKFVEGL
UniProt Q92993: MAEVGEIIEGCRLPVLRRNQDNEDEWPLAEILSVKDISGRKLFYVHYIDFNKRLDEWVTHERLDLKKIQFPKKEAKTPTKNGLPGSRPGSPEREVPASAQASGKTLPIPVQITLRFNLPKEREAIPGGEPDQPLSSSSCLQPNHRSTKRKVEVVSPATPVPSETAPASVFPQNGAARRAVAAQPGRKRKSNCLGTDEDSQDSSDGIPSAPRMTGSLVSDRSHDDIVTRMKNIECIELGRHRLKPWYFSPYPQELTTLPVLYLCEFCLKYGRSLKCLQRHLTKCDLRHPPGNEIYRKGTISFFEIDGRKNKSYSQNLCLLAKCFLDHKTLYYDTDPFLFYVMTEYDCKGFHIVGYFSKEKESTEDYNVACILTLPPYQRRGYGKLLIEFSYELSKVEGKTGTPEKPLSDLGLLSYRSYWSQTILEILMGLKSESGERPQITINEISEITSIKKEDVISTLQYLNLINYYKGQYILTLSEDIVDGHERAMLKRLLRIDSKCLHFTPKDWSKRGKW
UniProt Q09472: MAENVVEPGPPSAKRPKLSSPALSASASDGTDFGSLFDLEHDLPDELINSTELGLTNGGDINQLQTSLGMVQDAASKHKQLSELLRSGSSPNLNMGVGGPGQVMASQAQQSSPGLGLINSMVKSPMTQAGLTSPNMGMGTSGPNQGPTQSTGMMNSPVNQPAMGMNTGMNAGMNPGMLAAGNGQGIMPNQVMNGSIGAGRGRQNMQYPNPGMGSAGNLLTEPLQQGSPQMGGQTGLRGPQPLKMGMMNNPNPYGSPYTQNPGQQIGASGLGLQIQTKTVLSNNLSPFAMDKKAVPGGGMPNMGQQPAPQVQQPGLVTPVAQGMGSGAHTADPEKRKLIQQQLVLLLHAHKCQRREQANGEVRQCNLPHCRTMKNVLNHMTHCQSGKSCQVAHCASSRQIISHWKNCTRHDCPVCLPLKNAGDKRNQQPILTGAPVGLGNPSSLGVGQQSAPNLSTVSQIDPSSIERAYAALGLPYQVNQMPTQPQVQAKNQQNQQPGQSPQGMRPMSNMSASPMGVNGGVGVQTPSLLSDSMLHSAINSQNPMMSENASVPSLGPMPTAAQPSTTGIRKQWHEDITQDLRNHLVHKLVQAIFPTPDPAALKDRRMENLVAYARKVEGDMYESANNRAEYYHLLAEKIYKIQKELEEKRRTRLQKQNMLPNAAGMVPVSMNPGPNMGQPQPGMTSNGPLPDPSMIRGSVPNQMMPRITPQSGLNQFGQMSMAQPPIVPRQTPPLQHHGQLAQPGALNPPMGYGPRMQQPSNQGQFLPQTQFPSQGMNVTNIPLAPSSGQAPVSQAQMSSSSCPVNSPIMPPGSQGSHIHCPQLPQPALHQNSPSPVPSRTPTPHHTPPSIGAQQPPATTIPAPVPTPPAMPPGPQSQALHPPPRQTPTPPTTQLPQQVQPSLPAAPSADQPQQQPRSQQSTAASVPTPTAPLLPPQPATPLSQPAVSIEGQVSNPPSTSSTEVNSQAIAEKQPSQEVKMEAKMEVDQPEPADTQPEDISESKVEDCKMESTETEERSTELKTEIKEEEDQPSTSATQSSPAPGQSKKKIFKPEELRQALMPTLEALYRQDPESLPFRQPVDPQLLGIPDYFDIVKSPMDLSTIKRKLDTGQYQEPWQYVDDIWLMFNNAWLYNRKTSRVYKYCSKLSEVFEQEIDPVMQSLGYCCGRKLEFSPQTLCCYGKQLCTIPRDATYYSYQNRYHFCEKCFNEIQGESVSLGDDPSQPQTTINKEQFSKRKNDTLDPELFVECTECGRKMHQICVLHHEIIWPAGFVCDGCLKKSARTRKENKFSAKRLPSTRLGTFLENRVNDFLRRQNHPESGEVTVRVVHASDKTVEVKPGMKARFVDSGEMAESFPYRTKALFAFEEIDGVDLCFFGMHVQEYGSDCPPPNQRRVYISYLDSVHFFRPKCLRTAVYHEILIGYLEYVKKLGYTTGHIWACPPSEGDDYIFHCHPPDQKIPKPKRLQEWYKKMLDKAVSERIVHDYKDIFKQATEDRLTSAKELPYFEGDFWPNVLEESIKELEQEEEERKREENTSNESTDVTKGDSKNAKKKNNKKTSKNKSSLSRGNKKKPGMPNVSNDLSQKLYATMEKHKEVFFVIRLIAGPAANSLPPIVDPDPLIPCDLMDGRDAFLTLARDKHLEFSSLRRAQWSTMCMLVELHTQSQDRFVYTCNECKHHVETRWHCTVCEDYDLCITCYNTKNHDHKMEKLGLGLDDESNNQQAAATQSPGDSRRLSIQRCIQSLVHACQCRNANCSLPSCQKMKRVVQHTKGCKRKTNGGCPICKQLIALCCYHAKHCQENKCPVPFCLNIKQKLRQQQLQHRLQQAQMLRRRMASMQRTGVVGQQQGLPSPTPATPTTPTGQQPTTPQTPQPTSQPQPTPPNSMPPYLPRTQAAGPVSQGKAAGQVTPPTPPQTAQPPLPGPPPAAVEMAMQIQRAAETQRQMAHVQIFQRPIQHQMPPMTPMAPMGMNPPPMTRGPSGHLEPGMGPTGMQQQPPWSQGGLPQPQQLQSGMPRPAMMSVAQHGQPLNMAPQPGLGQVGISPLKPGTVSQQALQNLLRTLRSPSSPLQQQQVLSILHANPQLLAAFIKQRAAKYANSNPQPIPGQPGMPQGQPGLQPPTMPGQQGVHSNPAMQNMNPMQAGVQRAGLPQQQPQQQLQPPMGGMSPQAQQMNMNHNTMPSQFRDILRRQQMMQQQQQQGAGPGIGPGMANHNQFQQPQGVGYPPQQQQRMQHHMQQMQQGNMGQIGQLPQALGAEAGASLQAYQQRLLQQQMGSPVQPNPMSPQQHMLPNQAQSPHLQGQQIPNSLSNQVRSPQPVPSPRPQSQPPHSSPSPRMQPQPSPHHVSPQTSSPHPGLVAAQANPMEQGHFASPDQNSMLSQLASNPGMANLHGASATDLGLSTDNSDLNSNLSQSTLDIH

The target of experiment [2] is GAS41-amino acids 1-160 (YEATS domain and A box) (human) (UniProt O95619). The experiment in a line: co-IP; Supplementary Fig. 6a, b: GAS41 regions with TRRAP or TIP60; legend and cells not shown.
Experiment [3] concerns the target T2, NRF2, endogenous in A549 (human (endogenous in A549)) (UniProt Q16236).
T2 sequence: T1 sequence
The experiment in a line: co-IP; endogenous proteins of A549 cells; GAS41 antibody, NRF2 antibody or control IgG, protein A/G agarose; western blot.

The target in experiment [4] is T1, Flag-NRF2. The experiment in a line: co-IP; HEK293T cells transfected with NRF2 and GAS41 (wild type, fragments or point mutants) plasmids; lysis in BC150 buffer (150 mM NaCl, 0.4% NP-40), Flag M2, HA or streptavidin agarose overnight at 4 °C, washes with BC200 and BC150; western blot.
Experiment [5] has as its target GAS41 W93A mutant (human) (UniProt O95619). Described as above.
Experiment [6] addresses GAS41-amino acids 161-227 (complete coiled-coil motif) (human) (UniProt O95619). Described as above.
The target in another experiment is HA-GAS41 (human) (UniProt O95619). Described as above.
Experiment [7] deals with GAS41-amino acids 1-206 (YEATS domain, A box and partial coiled-coil motif) (human) (UniProt O95619). Described as above.
For experiment [8], the target named is GAS41-amino acids 1-183 (YEATS domain and A box) (human) (UniProt O95619). The description is as above.
For experiment [9], the target named is GAS41-amino acids 1-160 (YEATS domain and A box) (human) (UniProt O95619). Described as above.
The target in experiment [10] is GAS41, endogenous in A549 (human (endogenous in A549)) (UniProt O95619). The experiment in a line: co-IP; endogenous proteins of A549 cells; GAS41 antibody, NRF2 antibody or control IgG, protein A/G agarose; western blot. (A western blot detects proteins with antibodies after separation by electrophoresis.)
The target in experiment [11] is SFB (S protein tag, Flag tag, and Streptavidin binding peptide)-GAS41 (human) (UniProt O95619). The experiment in a line: co-IP; SFB-GAS41 stable HEK293T cell line; two-step affinity purification (first streptavidin agarose beads, then S-protein agarose beads); western blot.

These are yes or no findings as the source states them, for the method shown. Binding seen in cells or lysates may run through a third protein. Some binding calls cover weakened binding; strength is not graded here. For some assays here: Sequences can lack the tags named with a protein.

“CBP (CREB binding protein) (from UniProt Q92793 1-2442)”: in the experiment with Flag-NRF2 [1], the binding result is on record as “binds”.

As for TIP60 (from UniProt Q92993 1-513), in experiment [2], the binding result is recorded as “binds”. As for “GAS41, endogenous in A549 (from UniProt O95619 1-227)”, the binding entry in [3] is given as “binds”. Take p300 (from UniProt Q09472 1-2414): the binding result with Flag-NRF2 [1] is reported as “binds”. Turning to HA-GAS41 (from UniProt O95619 1-227), the binding entry with Flag-NRF2 [4] is “binds”.

Consider TRRAP (from UniProt Q9Y4A5 1-3859), for which the binding result in [2] is “binds”.

B1: Flag-NRF2 (protein, UniProt Q16236 1-605)
chain: T1 sequence
As for B1, the binding entry is given as “binds” in [5]; “binds” in experiment [6]; “binds” in the experiment with HA-GAS41 (human); “no binding” in [7]; “no binding” in [8]; “no binding” in experiment [9].

B2: NRF2, endogenous in A549 (protein, UniProt Q16236 1-605)
chain: T1 sequence
In the case of B2, the binding entry in [10] was “binds”.

B3: NRF2 in the SFB-GAS41 stable HEK293T cell line (protein, UniProt Q16236 1-605)
chain: T1 sequence
Turning to B3, in [11], the binding result is on record as “binds”.
